Measured values published in the supplement of paper PMC3334620.
The full ranking holds about 33,000 sequences; the median of “E-score (-0.5 to 0.5)” is about -0.017, and the highest 2% start at about 0.3. The list shows a part of the results.

These sequences were tested against T1, Sut1 (UniProt P53032) (assay: PBM E-score (8-mer binding enrichment) (E-score (-0.5 to 0.5)); higher = stronger / more preferred TF binding; most listed sequences are background and not binding sites). Settings: protein concentration: 200 nM; construct: GST-full length.
T1 sequence: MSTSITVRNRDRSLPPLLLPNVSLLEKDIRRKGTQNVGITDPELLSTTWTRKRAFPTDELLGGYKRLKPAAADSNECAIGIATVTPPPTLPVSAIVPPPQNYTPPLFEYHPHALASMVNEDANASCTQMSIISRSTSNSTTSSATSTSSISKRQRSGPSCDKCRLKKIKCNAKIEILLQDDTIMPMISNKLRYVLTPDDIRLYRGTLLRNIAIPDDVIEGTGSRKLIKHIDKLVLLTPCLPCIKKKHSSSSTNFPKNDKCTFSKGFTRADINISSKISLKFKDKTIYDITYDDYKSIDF
How it was run: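 The E-score, a modified Wilcoxon-Mann-Whitney statistic, was computed by the Universal PBM Analysis Suite for every ungapped eight-base word pooled with its reverse complement. Scans behind it were normalised with masliner after bound GST-tagged yeast transcription factors were detected with fluorescent anti-GST. The proteins, at about 100-200 nM, had been applied to universal all-10-mer Agilent arrays made double-stranded by primer extension.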

Point of comparison: GTCCGGTA, “PBM E-score” value 0.373. Against it:
- GTCGTGCA — lower, -0.256
- AAAGACTG — lower, -0.0899
- AAGCCTTA — lower, -0.0538
- CCATACGC — lower, -0.0864
- AGTGGTTA — lower, 0.094
- AGGGTAGG — lower, -0.235
- GCGGCGAA — lower, 0.13
- GGGCTTAA — lower, -0.122
- ATTGTAGA — lower, 0.167
- TAGTAGAA — lower, 0.0513
- CCTCCACC — lower, -0.0218
- CAACTGGC — lower, -0.128
- ACGATCAA — lower, 0.0406
- GCTGACCC — lower, -0.116
- GAGATCGA — lower, 0.00199
- ACGGAGCA — lower, 0.207
- ACTTTACT — lower, 0.128
- AAATCGCG — lower, 0.0769
- GGTAGAGA — lower, -0.113
- TCTACTAA — lower, 0.159
- CAATACCA — lower, 0.116
- TGCGCGAA — lower, 0.168
- TCCATCGA — lower, -0.0147
- TCGGAAGA — lower, 0.142
- ATGGGGTA — lower, -0.0156
- GATTCGAC — lower, -0.0375
- ATGGATCC — lower, 0.0993
- CGAGGACG — lower, -0.0674
- GGGTTGTA — lower, -0.0207
- GTACCAAA — lower, 0.0249
- GGCTCTTA — lower, -0.0869
- AACCTCAA — lower, -0.00124
- CATATGCG — lower, -0.0808
- CGTATTTC — lower, 0.232
- ATTTACCG — lower, 0.227
- CTTAGGCA — lower, -0.18
- ACCGTCAC — lower, -0.294
- GACATCTC — lower, 0.0546
- AAGAGGTA — lower, 0.124
- TATGCGAA — lower, 0.131
- AACGCTTA — lower, -0.00017
- CGTTGTAG — lower, 0.165
- AGGTATCG — lower, 0.0564
- CGCTATTA — lower, 0.175
- CTGGGGTC — lower, -0.224
- CATTTGGG — lower, -0.144
- AAGTCTAT — lower, -0.0126
- CAAAGGAA — lower, 0.0795
- GAGCCGTA — lower, 0.113
- GCAATTCA — lower, -0.0115
- CGCACGTC — lower, -0.00581
- CACCAATA — lower, 0.112
- AGACTAAT — lower, 0.0123
- ACCAGATA — lower, 0.0404
- ACCTGCTC — lower, -0.204
- AGCTGGCG — lower, -0.301
- CCCCACTC — lower, -0.0828
- TAGAGTGA — lower, 0.118
- CATGTAAC — lower, 0.127
- ACGCAATC — lower, 0.0769
- ACGTTCCA — lower, -0.121
- AACTAGGT — lower, 0.211
- CCTGGACG — lower, -0.323
- AGCAATTA — lower, 0.183
- AATGACTG — lower, -0.0497
- GGTGAACA — lower, -0.254
- AACTGAGG — lower, -0.0963
- ATTCCGAC — lower, 0.219
- AGGTACAA — lower, -0.0388
- CGAAGCCA — lower, 0.035
- AACCACAA — lower, 0.175
- GCGCCTTA — lower, -0.0601
- AAATCTCT — lower, 0.123
- GTAACTAC — lower, 0.159
- CGACAGAC — lower, -0.163
- CGGAGGCA — lower, 0.0908
- AACCTGTA — lower, -0.0478
- AGTGGACG — lower, 0.0924
- ACTATTTG — lower, 0.252
- GACCCCGC — lower, -0.0107
- CCCAGGAA — lower, -0.099
- CCACCCTC — lower, -0.0597
- ATTCGAAT — lower, 0.154
- GAAGACGA — lower, -0.00534
- ACGTTGCA — lower, -0.0425
- ATGCCGAA — lower, 0.125
- CTTGGCTA — lower, -0.0531
- AGCTGGAA — lower, -0.22
- CTTGACTA — lower, -0.0929
- CCGAAACA — lower, 0.154
- ACACGTCA — lower, -0.15
- ATTCCTCA — lower, 0.0522
- AGTATCAT — lower, 0.183
- AGTCTTTA — lower, 0.0267
- ATAGATAG — lower, 0.187
- ACGCACAT — lower, -0.0517
- TACGGGCA — lower, -0.0806
- CCAAGACA — lower, 0.0382
- CTCGCGAC — lower, -0.252
- AGACGGCG — lower, -0.0797
- CTCATGAC — lower, -0.0703
- AACCAGTC — lower, 0.173
- AGGCGTGG — lower, -0.404
- CCAAGCAG — lower, -0.0829
- AACTAGCG — lower, -0.0241
- AATCTGTG — lower, -0.0439
- GGATCTAA — lower, 0.0238
- CGCTTACG — lower, -0.171
- ATTACGTG — lower, -0.0252
- ACACTCCA — lower, 0.0327
- GAGGGATA — lower, -0.264
- CTAACCCC — lower, -0.102
- GGATCGTA — lower, 0.0665
- GTCGGCTA — lower, -0.0144
- CTATCAGC — lower, -0.0428
- CCATTGAA — lower, 0.167
- AATAGTAG — lower, 0.173
- CGCAATTA — lower, 0.142
- GTTTGATA — lower, 0.241
- GTCATACA — lower, 0.226
- AAAGTACG — lower, 0.0791
- ACAAAGCT — lower, -0.027
- AGTGCATG — lower, -0.0963
- ATATCGCC — lower, 0.0593
- GCCTTCAA — lower, -0.0191
- ACTTTCAC — lower, 0.231
- CAACCGTC — lower, -0.283
- AACACACT — lower, 0.0242
- CCTAGCGC — lower, -0.127
- ATTATACC — lower, 0.149
- CTCTAGTC — lower, -0.147
- TGACCCAA — lower, -0.152
- ATATTGCA — lower, 0.0739
- TAGCCAAA — lower, 0.137
- AAACTGGC — lower, -0.0885
- ATCAGAAC — lower, -0.0461
- CCTTGCGA — lower, -0.13
- AGGGGGTA — lower, -0.323
- AGCTGGCA — lower, -0.241
- AGTCGGAG — lower, 0.316
- GGCACGTA — lower, -0.146
- ATACGGGG — lower, -0.0377
- CTTTCGAC — lower, 0.0381
- GCAACGGC — lower, -0.0987
- GCCACTAC — lower, -0.00549
- AGCCCTGG — lower, -0.299
- GGCCCTCA — lower, -0.279
- ACGCATAA — lower, 0.0185
- ACACATTA — lower, 0.00791
- CACGCACC — lower, -0.17
- ACTAGGCT — lower, -0.0538
- ACCAGTAC — lower, -0.139
- CCTTCTAG — lower, -0.0796
- CTGTCTGC — lower, -0.331
- AGGCTAGA — lower, -0.0922
- CGACCCCA — lower, -0.275
- CTCAACCA — lower, -0.0246
- ACGGTTGG — lower, -0.112
- CTCATCAA — lower, 0.179
- ATGATCTA — lower, 0.0838
- CGATAGCA — lower, -0.245
- ATTCGCTA — lower, 0.0525
- AAACCGTA — lower, 0.083
- AATCATCC — lower, 0.0734
- CATACGGC — lower, -0.156
- GATATAGA — lower, 0.136
- AGGGCGCC — lower, -0.353
- CAGGCTTA — lower, 0.0613
- TAAACCTA — lower, 0.0849
- TCCGTAGA — lower, 0.361
- ACGGTAGG — lower, -0.172
